# Results taken from article PMC12820563.
# This is one part of the list. The list includes weakly bound sequences.
# Biological target: T1, MBP-FoxP3dN (UniProt Q99JB6)
# T1 sequence: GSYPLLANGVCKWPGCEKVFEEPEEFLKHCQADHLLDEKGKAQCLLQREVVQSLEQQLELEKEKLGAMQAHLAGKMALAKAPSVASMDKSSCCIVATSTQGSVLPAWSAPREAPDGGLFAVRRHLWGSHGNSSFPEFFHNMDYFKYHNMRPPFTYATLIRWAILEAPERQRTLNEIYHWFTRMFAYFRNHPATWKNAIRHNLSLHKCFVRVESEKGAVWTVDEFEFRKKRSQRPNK
# Assay: PD-seq (MBP pull-down with sequencing)
# Settings: 20 mM Tris-HCl pH 7.5, 100 mM NaCl, 1.5 mM MgCl2, 0.4 uM protein, 0.1 uM dsDNA library, 30 min, room temperature, amylose pull-down; high values mean tight binding; double strand, one strand shown
row,Sequence,binding signal (RPM ratio (pull-down/input))
1,GATGATTGTTCTCCCAGCTGATGAATTCGTACCATCGAGTAAACAAATTTTCCTAATCTTTCTGTTCAAGCGCCATCTAC,0.621
2,GATGATTGTTCTCCCAGCTGATGAATTGCACCCTTCGAGTAAACAAATTTTCCTAATCTTTCTGTTCAAGCGCCATCTAC,0.919
3,GATGATTGTTCTCCCAGCTGATGAATTGCGCCGGTCGAGTAAACAAATTTTCCTAATCTTTCTGTTCAAGCGCCATCTAC,1.17
4,GATGATTGTTCTCCCAGCTGATGAATTTGGCTGATCGAGTAAACAAATTTTCCTAATCTTTCTGTTCAAGCGCCATCTAC,0.615
5,GATGATTGTTCTCCCAGCTGATGAATTAATACCATCGAGTAAACAAATTTTCCTAATCTTTCTGTTCAAGCGCCATCTAC,0.568
6,GATGATTGTTCTCCCAGCTGATGAATTCTTGATTTCGAGTAAACAAATTTTCCTAATCTTTCTGTTCAAGCGCCATCTAC,0.467
7,GATGATTGTTCTCCCAGCTGATGAATTCGTTTCATCGAGTAAACAAATTTTCCTAATCTTTCTGTTCAAGCGCCATCTAC,0.958
8,GATGATTGTTCTCCCAGCTGATGAATTGTCTGTTTCGAGTAAACAAATTTTCCTAATCTTTCTGTTCAAGCGCCATCTAC,0.639
9,GATGATTGTTCTCCCAGCTGATGAATTGGGTATCTCGAGTAAACAAATTTTCCTAATCTTTCTGTTCAAGCGCCATCTAC,2.44
10,GATGATTGTTCTCCCAGCTGATGAATTCGCCCCCTCGAGTAAACAAATTTTCCTAATCTTTCTGTTCAAGCGCCATCTAC,0.388
11,GATGATTGTTCTCCCAGCTGATGAATTCAGCATGTCGAGTAAACAAATTTTCCTAATCTTTCTGTTCAAGCGCCATCTAC,4.71
12,GATGATTGTTCTCCCAGCTGATGAATTGATGGACTCGAGTAAACAAATTTTCCTAATCTTTCTGTTCAAGCGCCATCTAC,0.493
13,GATGATTGTTCTCCCAGCTGATGAATTCGTTAACTCGAGTAAACAAATTTTCCTAATCTTTCTGTTCAAGCGCCATCTAC,0.54
14,GATGATTGTTCTCCCAGCTGATGAATTAGGGTCGTCGAGTAAACAAATTTTCCTAATCTTTCTGTTCAAGCGCCATCTAC,0.706
15,GATGATTGTTCTCCCAGCTGATGAATTGACTCGATCGAGTAAACAAATTTTCCTAATCTTTCTGTTCAAGCGCCATCTAC,0.303
16,GATGATTGTTCTCCCAGCTGATGAATTTAGATAGTCGAGTAAACAAATTTTCCTAATCTTTCTGTTCAAGCGCCATCTAC,0.637
17,GATGATTGTTCTCCCAGCTGATGAATTCCTCTGATCGAGTAAACAAATTTTCCTAATCTTTCTGTTCAAGCGCCATCTAC,0.244
18,GATGATTGTTCTCCCAGCTGATGAATTATGTATGTCGAGTAAACAAATTTTCCTAATCTTTCTGTTCAAGCGCCATCTAC,4.99
19,GATGATTGTTCTCCCAGCTGATGAATTCATTAATTCGAGTAAACAAATTTTCCTAATCTTTCTGTTCAAGCGCCATCTAC,0.349
20,GATGATTGTTCTCCCAGCTGATGAATTCGGTAAGTCGAGTAAACAAATTTTCCTAATCTTTCTGTTCAAGCGCCATCTAC,0.389

row,Sequence,binding signal (RPM ratio (pull-down/input))
1,GATGATTGTTCTCCCAGCTGATGAATTACAAACCTCGAGTAAACAAATTTTCCTAATCTTTCTGTTCAAGCGCCATCTAC,0.531
2,GATGATTGTTCTCCCAGCTGATGAATTAGCCATGTCGAGTAAACAAATTTTCCTAATCTTTCTGTTCAAGCGCCATCTAC,0.552
3,GATGATTGTTCTCCCAGCTGATGAATTGGCTATCTCGAGTAAACAAATTTTCCTAATCTTTCTGTTCAAGCGCCATCTAC,0.713
4,GATGATTGTTCTCCCAGCTGATGAATTTAGAAGCTCGAGTAAACAAATTTTCCTAATCTTTCTGTTCAAGCGCCATCTAC,0.266
5,GATGATTGTTCTCCCAGCTGATGAATTCATTGGATCGAGTAAACAAATTTTCCTAATCTTTCTGTTCAAGCGCCATCTAC,0.307
6,GATGATTGTTCTCCCAGCTGATGAATTCGAGTTGTCGAGTAAACAAATTTTCCTAATCTTTCTGTTCAAGCGCCATCTAC,0.822
7,GATGATTGTTCTCCCAGCTGATGAATTTTAGAAATCGAGTAAACAAATTTTCCTAATCTTTCTGTTCAAGCGCCATCTAC,0.28
8,GATGATTGTTCTCCCAGCTGATGAATTTTGTCCTTCGAGTAAACAAATTTTCCTAATCTTTCTGTTCAAGCGCCATCTAC,1.7
9,GATGATTGTTCTCCCAGCTGATGAATTGAGACGTTCGAGTAAACAAATTTTCCTAATCTTTCTGTTCAAGCGCCATCTAC,0.368
10,GATGATTGTTCTCCCAGCTGATGAATTGCCTATCTCGAGTAAACAAATTTTCCTAATCTTTCTGTTCAAGCGCCATCTAC,0.625
11,GATGATTGTTCTCCCAGCTGATGAATTACTCGACTCGAGTAAACAAATTTTCCTAATCTTTCTGTTCAAGCGCCATCTAC,0.292
12,GATGATTGTTCTCCCAGCTGATGAATTGGAGAAGTCGAGTAAACAAATTTTCCTAATCTTTCTGTTCAAGCGCCATCTAC,0.175
13,GATGATTGTTCTCCCAGCTGATGAATTAGCATAGTCGAGTAAACAAATTTTCCTAATCTTTCTGTTCAAGCGCCATCTAC,0.596
14,GATGATTGTTCTCCCAGCTGATGAATTTACTGGATCGAGTAAACAAATTTTCCTAATCTTTCTGTTCAAGCGCCATCTAC,0.332
15,GATGATTGTTCTCCCAGCTGATGAATTATTCTTGTCGAGTAAACAAATTTTCCTAATCTTTCTGTTCAAGCGCCATCTAC,0.299
16,GATGATTGTTCTCCCAGCTGATGAATTGGTTACTTCGAGTAAACAAATTTTCCTAATCTTTCTGTTCAAGCGCCATCTAC,0.72
17,GATGATTGTTCTCCCAGCTGATGAATTCGTGCCGTCGAGTAAACAAATTTTCCTAATCTTTCTGTTCAAGCGCCATCTAC,0.671
18,GATGATTGTTCTCCCAGCTGATGAATTTCGCATTTCGAGTAAACAAATTTTCCTAATCTTTCTGTTCAAGCGCCATCTAC,6.94
19,GATGATTGTTCTCCCAGCTGATGAATTCATGCATTCGAGTAAACAAATTTTCCTAATCTTTCTGTTCAAGCGCCATCTAC,5.77
20,GATGATTGTTCTCCCAGCTGATGAATTGTTGGACTCGAGTAAACAAATTTTCCTAATCTTTCTGTTCAAGCGCCATCTAC,0.611
